From PubChem BioAssay AID1159614 (National Center for Advancing Translational Sciences (NCATS), 2016)
Among all 45,000 compounds or so, about 65 (0.1%) were called active. The call rests on the fitted dose curve; in most records, active means well fitted activation curve with a large enough effect; inconclusive means small, poorly fitted or top-dose-only effect; inactive means no such curve, though single readings can be large or run the other way. Some of the results follow.

What follows are molecules tested against Galactocerebrosidase (Homo sapiens) (UniProt P54803) (assay: A Novel Cell-Based Assay to Identify Small Molecules for B -Galactocerebrosidase). Details: 145M-Twi-hGALC-G270D cells (Twitcher mouse brain line with human GALC G270D), HMU-beta-Gal fluorescence, 48 h; series mostly up to 57.5 µM; activation: at the top concentration.
In short: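 Fluorescence readout: HMU-β-gal cleavage by mutant GALC (0.1 mM final, citrate/phosphate pH 5.2 with 1 mg/mL taurocholate), stopped with carbonate/bicarbonate plus Triton X-100. Cells: murine Twitcher 145M-Twi expressing human G270D GALC; qHTS for activators.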
Further: 0% is about no effect; nearly all actives have a fitted effect of over 65% in size.

UniProt P54803, sequence (P54803 whole entry, looked up): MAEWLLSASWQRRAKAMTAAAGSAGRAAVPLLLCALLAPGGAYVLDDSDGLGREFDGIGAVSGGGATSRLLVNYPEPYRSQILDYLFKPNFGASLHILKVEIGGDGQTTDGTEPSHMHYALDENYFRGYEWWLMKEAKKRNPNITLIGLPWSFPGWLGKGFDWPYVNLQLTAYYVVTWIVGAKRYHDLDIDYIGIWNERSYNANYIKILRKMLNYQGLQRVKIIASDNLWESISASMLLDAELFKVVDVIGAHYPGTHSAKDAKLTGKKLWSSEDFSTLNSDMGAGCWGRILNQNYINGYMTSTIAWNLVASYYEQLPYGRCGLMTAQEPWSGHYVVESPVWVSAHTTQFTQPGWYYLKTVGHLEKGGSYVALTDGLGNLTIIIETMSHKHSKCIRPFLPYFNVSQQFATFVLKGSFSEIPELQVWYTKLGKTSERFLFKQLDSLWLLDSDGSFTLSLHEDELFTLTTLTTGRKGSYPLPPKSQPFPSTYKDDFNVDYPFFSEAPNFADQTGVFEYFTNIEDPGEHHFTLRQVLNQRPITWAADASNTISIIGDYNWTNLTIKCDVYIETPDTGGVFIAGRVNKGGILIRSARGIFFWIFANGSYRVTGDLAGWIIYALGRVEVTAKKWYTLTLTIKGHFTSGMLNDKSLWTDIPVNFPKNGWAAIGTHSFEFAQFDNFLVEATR

activation, inactive:
Cc1ccc(NC(=O)C2CCC(CNS(=O)(=O)c3cccs3)CC2)cc1C (stereo not drawn) -13%, CC(C)c1ccc(S(=O)(=O)NCc2nc3cccnc3n2Cc2ccc(F)cc2)cc1 -11%, CC1=C(C(=O)Nc2cc(C)cc(C)c2)C2(CCCCC2)OC1=O -2.32%, COc1ccc(NC(=O)COCc2cc(-c3ccco3)on2)cc1Cl 6.11%, O=C(Nc1ccc(F)c(F)c1)c1ccc(=O)n(Cc2ccc(F)cc2)c1 -7.18%, O=S(=O)(Nc1ccc(OC(F)(F)F)cc1)c1ccc(N2CCCCS2(=O)=O)cc1 -24%, Cc1cc(C)c(S(=O)(=O)NCC(c2ccco2)S(=O)(=O)c2ccccc2)c(C)c1 (stereo not drawn) -16.2%, CCc1cccc(C)c1Nc1c(-c2cccs2)nc2ncccn12 -16.4%, O=C(Cn1c(=O)c2ccccc2n(CC(=O)Nc2ccccc2F)c1=O)NCCc1ccccc1 -19.2%, Cc1cc(C)c(NC(=O)CCN2CCCCC2)c(C)c1 -14.5%, COc1cccc(C2C(=O)N(C3CCCCC3)CC(=O)N2CCc2ccc(OC)c(OC)c2)c1 (stereo not drawn) -4.79%, Nc1nc(N)c(S(=O)(=O)c2ccccc2)c(Nc2ccccc2)n1 3.1%, COc1cc(OC)c(NC(=O)CCc2nc(C3=CCN(Cc4cccc(Cl)c4)CC3)no2)cc1Cl 1.01%, CCc1ccc(-n2c(=O)c3sc4ccccc4c3n(CC(=O)NC3CCCC3)c2=O)cc1 -13.1%, Cc1nc2nc(CNC(=O)OC(C)(C)C)nn2c(C)c1CCC(=O)NCc1ccccc1Cl -12.2%, COc1ccc(-c2cc(C(=O)Oc3ccc(Br)cc3)c3ccccc3n2)cc1 -10.6%, Cc1ccc(NC(=O)c2oc3ccccc3c2NC(=O)C2CCCCC2)cc1 -20.2%, CCc1ccc2c(c1)c(=O)c(S(=O)(=O)c1ccc(F)cc1)cn2CC(=O)Nc1ccccc1OC -10.6%, CC(C)c1ccc(NC(=O)CN2C(=O)C3(SCC(=O)N3c3ccc(F)cc3)c3ccccc32)cc1 (stereo not drawn) -15.7%, Cc1ccc(N2CCn3c2nc2c3c(=O)n(Cc3cccc(Cl)c3)c(=O)n2C)cc1C -2.61%, O=C(Nc1ccc(Cl)cc1)c1ccc2c(c1)N(Cc1ccccc1)CCS2 -15.1%, COc1ccc(NC(=O)Cn2c(=O)n(Cc3ccco3)c(=O)c3sc4ccccc4c32)cc1Cl -7.45%, CCSC1=NC2(CCN(C(=O)NC3CCCCC3)CC2)N=C1c1ccc(OC)cc1 -0.958%, Cc1nc(CC(=O)Nc2ccc(C(N)=O)cc2)cs1 -2.16%, CC(C(=O)NCc1ccccc1)n1ccc2cc(S(=O)(=O)N3CCCC3)ccc21 (stereo not drawn) -10%, CCOc1ccccc1CNC(=O)CCc1cn(C)c2ccccc12 -27.7%, CCCC12CN3CC(CCC)(CN(C1)C3c1c[nH]c3ccc(OC)cc13)C2=O (stereo not drawn) -12.4%, CCN(C(=O)CSc1nc2ccccc2nc1Cc1ccccc1OC)c1ccccc1 22.5%, O=C(CN1C(=O)CCSc2ccc(S(=O)(=O)N3CCCC3)cc21)Nc1ccccc1Cl -12.4%, CCCOc1ccc(CC2C(=O)Nc3ccc(Br)cc32)cc1 (stereo not drawn) -4.47%, CC(=O)Nc1ccc(S(=O)(=O)NC2(C(F)(F)F)C(=O)Nc3c2c(=O)[nH]c(=O)n3-c2ccc(C)cc2)cc1 (stereo not drawn) -15.1%, CCc1cccc(NC(=O)CN2C(=O)COc3ccc(S(=O)(=O)N4CCC(C)CC4)cc32)c1 -7.34%, CCOCCCNC(=O)C(c1ccc(OC)cc1)N(Cc1cccs1)C(=O)CNC(C)=O (stereo not drawn) -12.2%, Cc1ccc(C(=O)CC2(O)C(=O)N(CCc3ccccc3)c3ccc(Br)cc32)cc1 (stereo not drawn) -34.2%, Cc1ccc(Cn2c(C)c3cnn(CC(=O)N4CCN(c5cc(C)ccc5C)CC4)c(=O)c3c2C)cc1 5.25%, COc1cccc(-n2c(C)nc3c(cnn3-c3ccc(C)c(C)c3)c2=O)c1 -11.5%, O=c1oc2ccc(Cl)cc2cc1-c1nc(-c2cccs2)no1 -11.6%, CCOC(=O)c1cc2c(=O)n3ccccc3nc2n(CCCOC)c1=NC(=O)c1cc2ccccc2o1 -15.7%, COc1ccc(NC(=O)Cn2c(=O)n(Cc3ccccc3Cl)c(=O)c3cc(OC)c(OC)cc32)cc1 -15.1%, Cc1ccc(-n2nc3c(N4CCCC(C(=O)NCc5ccccc5C)C4)nnc(C)c3c2C)cc1 (stereo not drawn) -24.6%, COC(=O)c1c(NC(=O)CS(=O)(=O)c2ccc(C)cc2)sc2c1CCCCC2 -23%, CCOc1cc2[nH]c(=O)n(CCC(=O)N3CCN(c4ccccc4)CC3)c(=O)c2cc1OCC -11.4%, Cc1ccc2scc(N3CCCC(C)C3)c(=O)c2c1 (stereo not drawn) -12.5%, O=C(c1ccc(Cl)cc1)n1nc(-c2ccccc2)nc1NCc1ccco1 -27.4%, CCCn1c(=N)c(C(=O)NC(C)c2ccccc2)cc2c(=O)n3ccccc3nc21 (stereo not drawn) -12%, COc1cccc(C(=O)NCc2cn3cccc(C)c3n2)c1 -12.5%, Cn1c(=O)n(C)c2cc(CNCc3ccccc3Cl)ccc21 -12%, Cc1ccc(NC(=O)N2CCN3CCCCC3C2)cc1C (stereo not drawn) -1.37%, Cc1c(Cl)cccc1-n1ncc(C(=O)NC2CCCC2)c1C1CCN(C(=O)OC(C)(C)C)CC1 -3.02%, CCOc1ccc(NC(=O)c2nn(C)c3c2COc2ccccc2-3)cc1 -2.17%, CC(C)c1ccc(NC(=O)CSC2=Nc3ccccc3C3=NC(CCC(=O)NCc4cccs4)C(=O)N23)cc1 (stereo not drawn) -1.93%, COc1ccc2c(c1)c1c(c(=O)n(-c3cc(Cl)ccc3C)c(=O)n1Cc1ccc(F)cc1)n2C 0.911%, COc1ccc(-c2[nH]c(-c3ccc(C)cc3)nc2SCC(=O)NCC2CCCO2)cc1 (stereo not drawn) -21.9%, COc1cccc(NC(=O)CSc2nc(=O)[nH]c3c2CCCC3)c1 -16.8%, CCSc1ncc(Cl)c(C(=O)Nc2cc(C)ccc2C)n1 -13%, CCCOC(=O)c1c(-c2ccccc2)c(-c2ccccc2)nn(C)c1=O -9.29%, Cc1cc(C)c(-c2n[nH]c3c2C(c2ccccc2F)N(CCO)C3=O)c(O)c1 (stereo not drawn) -9.56%, CC(=O)c1c(C)n(-c2cccc(Cl)c2)c2ccc(OC(=O)c3ccccc3)cc12 1.82%, O=C(NCCc1ccc(F)cc1)C(=O)NCC(c1cccs1)S(=O)(=O)c1cccs1 (stereo not drawn) 2.31%, COc1ccc(-c2cc(-c3ccccc3)nc3c2COc2ccc(Cl)cc2-3)cc1 -9.9%, O=C1C2=C(Nc3ccccc3SC2c2c(F)cccc2Cl)c2ccccc21 (stereo not drawn) -11.5%, COc1ccc(NC(=O)Nc2cn(CC(C)C)c(=O)c3ccccc23)c(OC)c1 -18.1%, Cn1cc[nH]c1=S -12.1%, CCOC(=O)N1CCC(NC(=O)c2cnn(-c3cccc(C)c3)c2-n2cccc2)CC1 -6.29%, CC(=O)N1CCCc2cc(S(=O)(=O)N3CCC(C(=O)NC4CCCCC4)CC3)ccc21 -17.4%, CC(C)(C)OC(=O)N1CCC(c2c(C(=O)N3CCN(C4CCCCC4)CC3)cnn2-c2cccc(Cl)c2)CC1 -17.1%, CCN1C(=O)C(O)(c2c(C)[nH]c3ccccc23)c2ccccc21 (stereo not drawn) -22.3%, COc1ccc(NC(=O)CSC2=Nc3ccccc3C3=NC(CCC(=O)NCCc4ccccc4)C(=O)N23)cc1 (stereo not drawn) -5.97%, Cc1oc2ncn(C)c(=O)c2c1C(=O)N(C)c1ccccc1F -2.79%, COC(=O)c1ccc(NS(=O)(=O)c2ccc3[nH]c4c(c3c2)CCCCC4)cc1 -27.6%, O=C(NCc1ccccc1Cl)C1CCCN(c2nc3ccccc3n3cccc23)C1 (stereo not drawn) -16.9%, Cc1ccc(C)c(S(=O)(=O)NCC(c2ccc(N(C)C)cc2)N2CCOCC2)c1 (stereo not drawn) -9.78%, Cc1cccc(-n2cc(-c3ccccc3)nc2SCC(=O)Nc2ccccc2Cl)c1 -7.32%, Cc1oc2ncn(CC(C)C)c(=O)c2c1C(=O)Nc1ccc(Cl)cn1 -14.4%, Cc1ccc(C)c(NC(=O)C(C)N(c2ccccc2)S(C)(=O)=O)c1 (stereo not drawn) -5.69%, CC1=C(C(=O)Nc2ccc(C)cc2C)C(c2ccc(C(C)C)cc2)n2nc(C(F)(F)F)nc2N1 (stereo not drawn) -23.4%, COc1ccc(-n2c(-c3ccc(Cl)cc3)cc3c2CC(C)(C)CC3=O)c(OC)c1 -17.9%, CCOC(=O)c1sc(NC(=O)c2nc(SC)ncc2Cl)c(C(=O)OCC)c1C -8.58%, Cc1cccc(OCCn2nnc3sc4c(c3c2=O)CCCC4)c1 -4.11%, CCOc1ccc(CNCCNC(=O)c2nonc2N)cc1 7.94%, CC(C)c1ccc(NS(=O)(=O)c2ccc3[nH]cc(C(=O)NC4CCCCC4)c(=O)c3c2)cc1 0.671%, CNC(=O)c1c(NC(=O)c2cc(=O)c3ccccc3o2)sc2c1CCC2 -22.6%, CCCCNC(=O)CSc1c2c(nc3ccc(Cl)cc13)CCCC2 -10.8%, COc1ccc(-c2nc3ccccc3s2)cc1NC(=O)c1ccccc1OC -3.23%, Cc1cccc(C)c1NC(=O)c1ccc2nc(CCc3ccccc3)oc2c1 -15.6%, Cc1cccc(NC(=O)c2sc3cccc(Cl)c3c2Cl)c1 -4.43%, Cc1c(C(=O)Nc2ccc(F)cc2F)nnn1-c1ccccc1Br -18.9%, COCCCNC(=O)c1c(C)nn(-c2ccc(F)cc2)c1-n1cccc1 -2.02%, CC1=C(C(=O)Nc2ccccc2)C(c2ccncc2)n2nc(SCc3ccccc3)nc2N1 (stereo not drawn) -11.9%, CC(C)c1ccc(NC(=O)CCS(=O)(=O)c2ccc(Br)s2)cc1 9.38%, COc1cccc(-c2cc(C(F)(F)F)nc(NCc3ccc(F)cc3)n2)c1 -5.26%, Cn1c(=O)c2sccc2n2c(CCCC(=O)Nc3ccc(F)c(F)c3)nnc12 0.49%, COc1cccc(-c2nc(S(=O)(=O)c3ccccc3)c(NCc3ccccc3)o2)c1 -16.5%, COc1ccc(CCNC(=O)c2ccc3c(c2)nc2n3CCOC2)cc1OC -14.6%, Cc1ccc(C(=O)COC(=O)C(Cc2c[nH]c3ccccc23)NC(=O)c2ccc(Br)cc2)cc1 (stereo not drawn) -14.7%, COc1ccc(NC(=O)C2=C(C)Nc3nc(SC)nn3C2c2cc(OC)ccc2OC)cc1 (stereo not drawn) 3.59%, Cc1nnc(N2CCC(C(=O)NCc3ccc(N(C)C)cc3)CC2)c2nn(-c3ccccc3)c(C)c12 -25.3%, O=C(NCCCO)C(=O)Nc1c2c(nn1-c1ccc(F)cc1)CSC2 -7.04%
